Measurements reported in the supplement of paper PMC3334620.
In all, about 33,000 sequences were measured (“E-score (-0.5 to 0.5)”: median about -0.036, highest 2% from about 0.37 on). Some of the results follow.

Biological target: T1, Yer064c (UniProt P40041)
T1 sequence: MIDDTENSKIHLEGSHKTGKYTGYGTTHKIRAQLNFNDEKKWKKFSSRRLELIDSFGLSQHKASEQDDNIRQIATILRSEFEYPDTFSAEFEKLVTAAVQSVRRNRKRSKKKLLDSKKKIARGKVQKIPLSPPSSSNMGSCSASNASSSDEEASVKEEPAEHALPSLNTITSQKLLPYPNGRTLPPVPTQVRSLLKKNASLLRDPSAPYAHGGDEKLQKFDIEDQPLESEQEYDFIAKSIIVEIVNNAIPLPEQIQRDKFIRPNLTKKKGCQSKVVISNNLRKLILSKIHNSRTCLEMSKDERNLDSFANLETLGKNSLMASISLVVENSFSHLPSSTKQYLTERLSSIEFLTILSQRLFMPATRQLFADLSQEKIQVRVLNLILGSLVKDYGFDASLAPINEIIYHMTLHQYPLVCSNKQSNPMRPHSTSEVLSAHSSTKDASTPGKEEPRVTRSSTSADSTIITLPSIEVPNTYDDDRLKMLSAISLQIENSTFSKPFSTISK
Assay: PBM E-score (8-mer binding enrichment) (E-score (-0.5 to 0.5)); higher = stronger / more preferred TF binding; most listed sequences are background and not binding sites
Settings: protein concentration: 200 nM; construct: GST-full length
How it was run: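 PURExpress in vitro transcription/translation supplied GST-tagged yeast transcription factors, either full-length or DNA-binding domain. Applied at about 100-200 nM to universal all-10-mer Agilent arrays double-stranded by primer extension, the bound protein was detected with fluorescent anti-GST. E-scores, modified Wilcoxon-Mann-Whitney statistics, were given by the Universal PBM Analysis Suite to ungapped eight-base words pooled with their reverse complements after masliner normalisation.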

| Sequence | PBM E-score |
| --- | --- |
| CCGCACGC | 0.0407 |
| GGAGATAA | -0.0354 |
| ATAGTGCC | -0.172 |
| CCCTTGTC | -0.245 |
| ACCTCACG | 0.00697 |
| GGTATCGA | 0.0487 |
| CTAATGCC | -0.144 |
| AACACAGG | -0.0744 |
| AGAGGATG | -0.129 |
| CGTGAACC | 0.0296 |
| CTTCGGTA | -0.0743 |
| AGTTCGAA | 0.0513 |
| CTCTCAAC | -0.0783 |
| GTAACAAA | 0.00224 |
| CACTGACC | -0.124 |
| GCCTCTTA | -0.0591 |
| AGGCTAAG | -0.179 |
| CGATTACC | 0.0503 |
| TCAGAGAA | 0.158 |
| AGACAAAT | 0.0231 |
| CTTCGCTA | 0.05 |
| CATATAAG | 0.0947 |
| ACCGTATC | -0.165 |
| CTTCATAA | 0.0699 |
| AATACCGC | -0.136 |

| Sequence | PBM E-score |
| --- | --- |
| CCACTAGG | -0.223 |
| CATTGACC | -0.153 |
| ACTTCCAT | 0.0833 |
| GGGTCCTA | -0.243 |
| GGTCGCAC | -0.269 |
| ATTTTCCA | -0.0878 |
| CGACAACA | -0.0357 |
| CCAATAAG | -0.0633 |
| GCTGTGCC | -0.251 |
| GAGCTACC | -0.196 |
| GAGAAGCC | -0.201 |
| TGCCCGAA | -0.127 |
| CCACGGAA | -0.0227 |
| GAAGTCGC | 0.26 |
| GTATCCGA | -0.202 |
| ACGCCTTA | -0.0171 |
| AAAACGAG | -0.0838 |
| CGTCAGTA | 0.0514 |
| CCGGCGAG | -0.131 |
| GAGGGAGC | -0.3 |
| AGGTTTAA | 0.202 |
| TGATATAA | -0.103 |
| ATCCCCTG | -0.208 |
| ACTACAGA | 0.211 |
| ACTGCTTG | 0.00264 |

| Sequence | PBM E-score |
| --- | --- |
| GCCTCTCC | -0.416 |
| AATATTAG | -0.00511 |
| GTCATCAC | 0.248 |
| ATCGCGCA | -0.0614 |
| GAACACAA | 0.0189 |
| AAGCCATC | 0.169 |
| ATGCTGAA | 0.108 |
| CAGCCGAC | 0.0244 |
| ATTAGTTA | 0.153 |
| AGACCTGA | 0.0539 |
| CACGTCCA | -0.198 |
| TCCTTAGA | 0.0256 |
| AGACTATC | 0.35 |
| ATTCAGTG | 0.214 |
| AGGCGTGC | -0.184 |
| TAGGGAGA | -0.103 |
| ACAGTAGG | -0.228 |
| AGCGCACG | -0.207 |
| AACACTGA | 0.117 |
| GCAGAGCC | -0.246 |
| CTATTGCC | -0.282 |
| AACTCATC | 0.33 |
| GGGCTAAC | 0.0488 |
| CGGCGTGC | -0.286 |
| AGAATCAA | 0.243 |

| Sequence | PBM E-score |
| --- | --- |
| GTAATCCA | 0.146 |
| AACGGAAG | -0.169 |
| CCGTTCAA | -0.24 |
| CACGCTAG | 0.0352 |
| CCGAAACC | -0.277 |
| ACTCCATG | 0.221 |
| GTGCTACA | -0.0701 |
| CTTGGCCC | -0.246 |
| GGATCCCC | -0.351 |
| CATCTGCA | -0.00401 |
| AGCTTGTG | -0.0804 |
| GTTGCCCA | 0.0844 |
| TTCGAAAA | 0.11 |
| ATTTAGCA | 0.0316 |
| TAGCAGAA | -0.0035 |
| AGGATGAG | 0.125 |
| AGGGAGAC | 0.109 |
| CCTCTGGC | -0.163 |
| ACGTGGAA | -0.0267 |
| AAGTAGTA | 0.0556 |
| ATACTCCC | -0.0449 |
| CGCGAATC | 0.268 |
| ACCAAGAA | 0.0785 |
| AATAGTAT | 0.0632 |
| CAATGAAG | 0.0402 |

| Sequence | PBM E-score |
| --- | --- |
| ATGGGGCC | -0.122 |
| AACAGAGA | 0.0575 |
| CTATGTTC | -0.0468 |
| CCATCAAC | 0.107 |
| AATAAGTC | 0.255 |
| AGACCACT | 0.00035 |
| GCCAGCGA | -0.00963 |
| AACTTATT | 0.225 |
| AACGGTTA | -0.0539 |
| ACACTAGC | -0.199 |
| CGGACACG | -0.147 |
| AAGTATCC | -0.102 |
| AACTGTAG | -0.064 |
| CGGGGGTC | -0.27 |
| AAATACAA | -0.0192 |
| GCCTGTAC | -0.18 |
| CACTTCGC | 0.0268 |
| CATGAAAA | 0.115 |
| GGGAACCC | -0.0877 |
| CCGGCTCG | -0.0379 |
| CGACGAGA | -0.0295 |
| TACATCAA | 0.0145 |
| CCGACTCG | 0.296 |
| AGATTTGG | -0.0761 |
| CACAACCA | 0.119 |

| Sequence | PBM E-score |
| --- | --- |
| GAGTGGGC | -0.11 |
| AATTCTGC | -0.0838 |
| AAGCGGCG | -0.166 |
| ATACCGAG | 0.133 |
| CGTCATGA | 0.253 |
| ATATGTGC | -0.051 |
| CGTGAACA | -0.0467 |
| AATTAGGC | -0.0732 |
| CTCATTTC | 0.104 |
| ACTGGTAC | 0.0153 |
| ATTTGCCC | -0.156 |
| GGGTATTA | -0.119 |
| ACGAGGTC | 0.0939 |
| ACCCGAAA | 0.00346 |
| AGCATTAT | 0.0325 |
| GCGGGTAA | 0.0295 |
| CATAGAGG | -0.132 |
| GGCCGTAC | -0.0687 |
| CAGTCATC | 0.467 |
| CCACCTGC | -0.296 |
| CGTACCGA | 0.0204 |
| CCTTTCTC | -0.136 |
| CTGCATCC | -0.0702 |
| ACAAACAA | 0.158 |
| ATATATTC | 0.00456 |

| Sequence | PBM E-score |
| --- | --- |
| CCCCCATC | -0.407 |
| CCTAATTA | -0.151 |
| AATCCGGC | -0.099 |
| GTCCTTAA | 0.288 |
| CGTAATAG | -0.0806 |
| TAGGTCAA | 0.176 |
| ATAGTCTA | 0.216 |
| TCCGTCCA | -0.0212 |
| GCGGTTAC | 0.0193 |
| CAAGTTTA | 0.00738 |
| GATCGAAC | -0.088 |
| CCCAGTGC | -0.27 |
| AGTTTCTG | 0.083 |
| GAGCTTCA | -0.142 |
| GTTTTGCA | 0.0104 |
| AGCTCTCA | -0.301 |
| CGAACGAA | -0.125 |
| CTAAGCAA | 0.109 |
| AAGCTCTG | -0.165 |
| GTTTAGTA | 0.0856 |
| ACGAATTG | -0.115 |
| TAACAGCA | -0.0356 |
